From the supplement of paper PMC8728848
Some of the results follow.

Experiments:
Assay in all cases: glycan array binding signal (z-score within array); higher = stronger binding
Conditions in all cases: glycan notation: IUPAC condensed, linker removed
[1] = molecular target: Fuc(a1-2)[GalNAc(b1-3)]Gal
Procedure, shortened: (§1)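 From the Consortium for Functional Glycomics database, 3228 arrays were curated, keeping only those whose protein sequence was available. Binding is given as a within-array Z-score averaged across arrays sharing a protein sequence and across linkers. Negative Z-scores can be read as non-binding.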

[2] = molecular target: Fuc(a1-3)GlcNAc
Procedure, shortened: as §1

[3] = molecular target: Fuc(a1-3)[Gal(b1-4)]Glc6S
Procedure, shortened: as §1

[4] = molecular target: Fuc(a1-3)[Gal(b1-4)]GlcNAc
Procedure, shortened: as §1

[5] = molecular target: Fuc(a1-3)[Gal(b1-4)]GlcNAc(b1-2)Man
Procedure, shortened: as §1

[6] = molecular target: Fuc(a1-3)[Gal(b1-4)]GlcNAc(b1-2)Man(a1-3)[Fuc(a1-3)[Gal(b1-4)]GlcNAc(b1-2)Man(a1-6)]Man(b1-4)GlcNAc(b1-4)GlcNAc
Procedure, shortened: as §1

[7] = molecular target: Fuc(a1-3)[Gal(b1-4)]GlcNAc(b1-2)Man(a1-3)[Fuc(a1-3)[Gal(b1-4)]GlcNAc(b1-2)Man(a1-6)]Man(b1-4)GlcNAc(b1-4)[Fuc(a1-6)]GlcNAc
Procedure, shortened: as §1

[8] = molecular target: Fuc(a1-3)[Gal(b1-4)]GlcNAc(b1-3)Gal(b1-3)[Fuc(a1-4)]GlcNAc
Procedure, shortened: as §1

[9] = molecular target: Fuc(a1-3)[Gal(b1-4)]GlcNAc(b1-3)Gal(b1-4)[Fuc(a1-3)]GlcNAc
Procedure, shortened: as §1

[10] = molecular target: Fuc(a1-3)[Gal(b1-4)]GlcNAc(b1-3)Gal(b1-4)[Fuc(a1-3)]GlcNAc(b1-3)Gal(b1-4)[Fuc(a1-3)]GlcNAc
Procedure, shortened: as §1

[11] = molecular target: Fuc(a1-3)[Gal(b1-4)]GlcNAc(b1-3)GalNAc
Procedure, shortened: as §1

[12] = molecular target: Fuc(a1-3)[Gal(b1-4)]GlcNAc(b1-6)GalNAc
Procedure, shortened: as §1

[13] = molecular target: Fuc(a1-3)[Gal(b1-4)]GlcNAc(b1-6)[Gal(b1-3)GlcNAc(b1-3)]Gal(b1-4)Glc
Procedure, shortened: as §1

[14] = molecular target: Fuc(a1-3)[Gal(b1-4)]GlcNAc6S
Procedure, shortened: as §1

[15] = molecular target: Fuc(a1-3)[Gal3S(b1-4)]Glc
Procedure, shortened: as §1

[16] = molecular target: Fuc(a1-3)[Gal3S(b1-4)]GlcNAc
Procedure, shortened: as §1

[17] = molecular target: Fuc(a1-3)[Gal3S(b1-4)]GlcNAc6S
Procedure, shortened: as §1

[18] = molecular target: Fuc(a1-3)[GalNAc(b1-4)]GlcNAc
Procedure, shortened: as §1

[19] = molecular target: Fuc(a1-3)[GalNAc(b1-4)]GlcNAc6S
Procedure, shortened: as §1

[20] = molecular target: Fuc(a1-4)GlcNAc
Procedure, shortened: as §1

[21] = molecular target: Fuc(b1-3)GlcNAc
Procedure, shortened: as §1

[22] = molecular target: Gal(a1-2)Gal
Procedure, shortened: as §1

[23] = molecular target: Gal(a1-3)Gal
Procedure, shortened: as §1

[24] = molecular target: Gal(a1-3)Gal(b1-3)GlcNAc
Procedure, shortened: as §1

[25] = molecular target: Gal(a1-3)Gal(b1-3)GlcNAc(b1-2)Man
Procedure, shortened: as §1

[26] = molecular target: Gal(a1-3)Gal(b1-3)GlcNAc(b1-2)Man(a1-3)[Gal(a1-3)Gal(b1-3)GlcNAc(b1-2)Man(a1-6)]Man(b1-4)GlcNAc(b1-4)GlcNAc
Procedure, shortened: as §1

[27] = molecular target: Gal(a1-3)Gal(b1-3)GlcNAc(b1-3)GalNAc
Procedure, shortened: as §1

[28] = molecular target: Gal(a1-3)Gal(b1-3)GlcNAc(b1-6)GalNAc
Procedure, shortened: as §1

[29] = molecular target: Gal(a1-3)Gal(b1-3)[Fuc(a1-4)]GlcNAc(b1-2)Man(a1-3)[Gal(a1-3)Gal(b1-3)[Fuc(a1-4)]GlcNAc(b1-2)Man(a1-6)]Man(b1-4)GlcNAc(b1-4)GlcNAc
Procedure, shortened: as §1

[30] = molecular target: Gal(a1-3)Gal(b1-4)Glc
Procedure, shortened: as §1

[31] = molecular target: Gal(a1-3)Gal(b1-4)GlcNAc
Procedure, shortened: as §1

[32] = molecular target: Gal(a1-3)Gal(b1-4)GlcNAc(b1-2)Man
Procedure, shortened: as §1

[33] = molecular target: Gal(a1-3)Gal(b1-4)GlcNAc(b1-2)Man(a1-3)[Gal(a1-3)Gal(b1-4)GlcNAc(b1-2)Man(a1-6)]Man(b1-4)GlcNAc(b1-4)GlcNAc
Procedure, shortened: as §1

[34] = molecular target: Gal(a1-3)Gal(b1-4)GlcNAc(b1-3)GalNAc
Procedure, shortened: as §1

[35] = molecular target: Gal(a1-3)Gal(b1-4)GlcNAc(b1-6)GalNAc
Procedure, shortened: as §1

[36] = molecular target: Gal(a1-3)Gal(b1-4)[Fuc(a1-3)]GlcNAc
Procedure, shortened: as §1

[37] = molecular target: Gal(a1-3)Gal(b1-4)[Fuc(a1-3)]GlcNAc(b1-2)Man(a1-3)[Gal(a1-3)Gal(b1-4)[Fuc(a1-3)]GlcNAc(b1-2)Man(a1-6)]Man(b1-4)GlcNAc(b1-4)GlcNAc
Procedure, shortened: as §1

B1: SSP1 (Sclerotinia sclerotiorum), XP_001584968 (protein)
chain: MGSSHHHHHHSSGLVPRGSHMSLLTTELACTSAPDQVLHLFFQDGQNILEARSPDGGNVWTTQDTIIAKDGDYNGSSMTCYYVDKDANFDNQPSIHLLYMNKDKQLTEKVKRMKGDNPIWEDAKVPDEVRKGPEQYSKLTSGSFNQGTGWNPNGSQWAYFSASKDGKMGIVEIRRTPKDPWHTETILEEKWGDELPGTALACVIGNGKIRVFLQHHDYSIILYENQNNTWHDRGTFIPKDKVQATTPLACTMTKDGSVHLFYVSKSNKIIHCTDGKKEEELINFFPGSKLGATSVENKITLFFRNLNPVNEVGTLENENGSWKHGTTVIPA
With B1 as the binder, how does the “glycan array binding signal (z-score)” value [1] read?
The value was -0.081.

And the “glycan array binding signal (z-score)” value [2]?
The value was 0.102.

What about the “glycan array binding signal (z-score)” value [3] of the same binder?
Its value is 0.452.

And the “glycan array binding signal (z-score)” value [4]?
The value was 0.178.

What about the “glycan array binding signal (z-score)” value [5] of the same binder?
Its value is 0.167.

And the “glycan array binding signal (z-score)” value [6]?
The value was -0.003.

And the “glycan array binding signal (z-score)” value [7]?
The value was -0.461.

What about the “glycan array binding signal (z-score)” value [8] of the same binder?
The value was -0.517.

And the “glycan array binding signal (z-score)” value [9]?
Its value is -0.07.

What about the “glycan array binding signal (z-score)” value [10] of the same binder?
The value was -0.083.

And the “glycan array binding signal (z-score)” value [11]?
The value was 0.264.

What about the “glycan array binding signal (z-score)” value [12] of the same binder?
The value was -0.115.

What about the “glycan array binding signal (z-score)” value [13] of the same binder?
The value was -0.067.

And the “glycan array binding signal (z-score)” value [14]?
The value was 0.517.

What about the “glycan array binding signal (z-score)” value [15] of the same binder?
The value was 0.066.

And the “glycan array binding signal (z-score)” value [16]?
Its value is 0.719.

And the “glycan array binding signal (z-score)” value [17]?
Its value is -0.18.

What about the “glycan array binding signal (z-score)” value [18] of the same binder?
Its value is 0.762.

And the “glycan array binding signal (z-score)” value [19]?
The value was -0.12.

And the “glycan array binding signal (z-score)” value [20]?
Its value is 0.034.

And the “glycan array binding signal (z-score)” value [21]?
The value was -0.277.

And the “glycan array binding signal (z-score)” value [22]?
Its value is 0.047.

What about the “glycan array binding signal (z-score)” value [23] of the same binder?
The value was -0.476.

And the “glycan array binding signal (z-score)” value [24]?
The value was 2.88.

What about the “glycan array binding signal (z-score)” value [25] of the same binder?
The value was -0.606.

What about the “glycan array binding signal (z-score)” value [26] of the same binder?
Its value is 0.327.

And the “glycan array binding signal (z-score)” value [27]?
The value was -0.016.

And the “glycan array binding signal (z-score)” value [28]?
The value was 0.819.

And the “glycan array binding signal (z-score)” value [29]?
Its value is 0.141.

What about the “glycan array binding signal (z-score)” value [30] of the same binder?
The value was -0.346.

And the “glycan array binding signal (z-score)” value [31]?
The value was -0.316.

What about the “glycan array binding signal (z-score)” value [32] of the same binder?
The value was -0.137.

What about the “glycan array binding signal (z-score)” value [33] of the same binder?
Its value is -0.097.

And the “glycan array binding signal (z-score)” value [34]?
The value was -0.142.

And the “glycan array binding signal (z-score)” value [35]?
The value was -0.258.

What about the “glycan array binding signal (z-score)” value [36] of the same binder?
Its value is -0.053.

What about the “glycan array binding signal (z-score)” value [37] of the same binder?
Its value is -0.315.
